From patent US20200002403A1 (published 2020)

Key:
Experiment in all cases: SPR (BIAcore)
[1] = molecular target: ELSS1 VNAR hit (unnamed, row 8)
[2] = molecular target: ELSS1 VNAR hit (unnamed, row 11)
[3] = molecular target: ELSS1 VNAR hit (unnamed, row 9)
[4] = molecular target: ELSS1 VNAR hit (unnamed, row 7)
[5] = molecular target: ELSS1 VNAR hit (unnamed, row 10)
[6] = molecular target: ELSS1 VNAR hit (unnamed, row 1)
[7] = molecular target: ELSS1 VNAR hit (unnamed, row 2)
[8] = molecular target: ELSS1 VNAR hit (unnamed, row 4)
[9] = molecular target: ELSS1 VNAR hit (unnamed, row 3)
Sequence of ELSS1 VNAR hit (unnamed, row 3) (Q9NR61 27-524): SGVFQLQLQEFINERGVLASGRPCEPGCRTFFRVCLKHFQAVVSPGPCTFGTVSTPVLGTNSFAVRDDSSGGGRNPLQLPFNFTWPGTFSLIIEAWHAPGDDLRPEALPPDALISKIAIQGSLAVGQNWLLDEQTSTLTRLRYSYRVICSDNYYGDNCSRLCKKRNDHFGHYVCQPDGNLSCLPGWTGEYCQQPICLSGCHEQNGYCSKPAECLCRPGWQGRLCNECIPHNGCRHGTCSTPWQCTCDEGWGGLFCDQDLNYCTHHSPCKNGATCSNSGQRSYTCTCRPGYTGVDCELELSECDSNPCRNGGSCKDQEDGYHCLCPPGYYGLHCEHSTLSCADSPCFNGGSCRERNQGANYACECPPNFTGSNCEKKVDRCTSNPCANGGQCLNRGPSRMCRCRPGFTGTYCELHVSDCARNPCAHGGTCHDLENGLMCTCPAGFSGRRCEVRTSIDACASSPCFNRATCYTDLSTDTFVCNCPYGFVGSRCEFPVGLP

Sequence of ELSS1 VNAR hit (unnamed, row 7) (Q15109 23-344): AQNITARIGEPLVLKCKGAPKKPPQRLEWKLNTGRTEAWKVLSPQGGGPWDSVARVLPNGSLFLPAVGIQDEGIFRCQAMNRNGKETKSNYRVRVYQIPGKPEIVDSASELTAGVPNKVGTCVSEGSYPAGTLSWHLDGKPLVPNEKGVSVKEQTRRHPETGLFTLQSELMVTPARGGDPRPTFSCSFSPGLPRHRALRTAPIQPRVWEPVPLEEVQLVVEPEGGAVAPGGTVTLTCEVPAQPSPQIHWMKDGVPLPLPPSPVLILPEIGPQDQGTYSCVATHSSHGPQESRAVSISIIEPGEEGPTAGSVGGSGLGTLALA
Sequence of ELSS1 VNAR hit (unnamed, row 11) (Q15109 23-344): as above
Sequence of ELSS1 VNAR hit (unnamed, row 8) (Q15109 23-344): as above
Sequence of ELSS1 VNAR hit (unnamed, row 9) (Q15109 23-344): as above
Sequence of ELSS1 VNAR hit (unnamed, row 10) (Q15109 23-344): as above
Sequence of ELSS1 VNAR hit (unnamed, row 1) (Q9NR61 27-524): as the sequence (Q9NR61 27-524) above
Sequence of ELSS1 VNAR hit (unnamed, row 2) (Q9NR61 27-524): as above
Sequence of ELSS1 VNAR hit (unnamed, row 4) (Q9NR61 27-524): as above

Row | Kd [1] [nM] | Kd [2] [nM] | Kd [3] [nM] | Kd [4] [nM] | Kd [5] [nM] | Kd [6] [nM] | Kd [7] [nM] | Kd [8] [nM] | Kd [9] [nM] | Binder
1 | 75.3 | 57.2 | 10.9 | 14.3 | 73.3 | – | – | – | – | hRAGE (receptor) not shown
2 | – | – | – | – | – | 18.7 | 17.7 | 57.8 | 2.49 | hDLL4 (ligand) not shown
